Drawing on the RNAGym collection of RNA variant scans (doi:10.7554/elife.90254), this text covers self-cleavage for 39 variants.

Read counts are not given, so values of variants with three or more changes are uncertain.

B1: LINE1-full (parent)
chain: UACGUAGGUGGUUUUCCCCUGAUAGUGCUAAGGGGGCCUGGAAGUUUGGACUGGGCAGAGCUCAACACAGCGUGGCAAAGUGGCUGUGGCUAGACUGCCUCUCUGGAUUCCUCGUCACUCAGCAGGGCAUCUCUGAGAGAAAUGCC

The data set covers variants of B1. As to the kind of experiment: self-cleavage, relative activity (ratio to wild type); higher = more cleavage; in vitro, sequencing; the parent is a self-cleaving ribozyme.
In the case of UACGUAGGUGGUUUUCCCCUGAUAGUGCUAAGGGGGCCUGGAAGUUUGGUCAGGGCAGAGCUCAACACAGCAUGGCAAAGUGGCUGUGGCUAGACUGCCUCUCUGGAUUCUUCGUCACUCAGCAGGGCAUCUCUGGGAGAAAUGCC [A50U U52A G72A C111U A136G], the self-cleavage stood at 1.17.

UACGUAGGUGGUUUUCCCCUGAUAGUGCUAAGGGGGCCUGGAAGUUUGGGCUGGGCAGAGCUCAACACAGCGUGGCAAAGUGGCUGUGGCUAGACUGCCUCUCUGGAUUCCUCGUCACUCAGCAGGGCAUCUCCGAGAGAGGUGCC [A50G U134C A141G A142G]: the self-cleavage was 1.8. For the variant UACGUAGGUGGUUUUCCCCUGAUAGUGCUAAGGGGGCCUGGAAGUUUGGUCUGGGCAGAGCUCAACACAGCGUGGCGAAGUGGCUGUGGCUAGGCAGCCUCUCUGGAUUCCUCGUCACACAGCAGGGCAUCUCUGAGAGAAAUGCC [A50U A77G A94G U96A U119A], the self-cleavage stood at 0.06.

As to UACGUAGGUGGUUUUCCCCUGAUAGUGCUAAGGGGGCCUGGAAGUUUGGGCUGGGCAGAGCUCAACACAGCGAGGCAAAGUGGCUGUGGCUAGACUGCCUCUCUGGAUUCCUCGUCUCUCAGCUGGGCAUCUCUGAGAGAAAUGCC [A50G U73A A117U A124U], the self-cleavage turned out to be 0.41. Next, UACGUAGGUGGUUUUCCCCUGAUAGUGCUAAGGGGGCCUGGAAGUUUGGUCUGGGCAGAGCUCAUCACAGCGUGGCAGAGUGGCAGUGGCUAGACUGCCUCUCUGGAUUCCUCGUCACUCAGCAGGGCAUCUCUGAGAGAAAUGCC [A50U A65U A78G U85A]: 0.02; UACGUAGGUGGUUUUCCCCUGAUAGUGCUAAGGGGGCCUGGAAGUUUGGGCUGGGCAGAGCUCAACACAGCGUGGCAAAGUGGCUGUGGCUAGACUGCCCCUCAGGAUUCCUCGUCACUCAGCAGGGCAUCUCUGAGAGAAACGCC [A50G U100C U104A U143C]: 1.49. Regarding UACGUAGGUGGUUUUCCCCUGAUAGUGCUAAGGGGGCCUGGAAGUUUGGUCUGGGCAGAGCUCAACACAGCGUGGCAAAGUGGCUGUGGCUAGACUGCCUCUCUGGAUUCCCCGUCACUCAGCAGGGCAUCUCUGAGAGAGAUGCC [A50U U112C A141G], the self-cleavage was found to be 0.73.

With UACGUAGGUGGUUUUCCCCUGAUAGUGCUAAGGGGGCCUGGAAGUUUGGUCUGGGCAGAGCUCAACACAGCGUGGCAAAGUGGCUGUGGCUAGACUGCCUCUCUGGAUUCCUCGCCAAUCAGCAGGGCAUCUCUGAGAGAAAAGCC [A50U U115C C118A U143A], the self-cleavage was 1.6.

Take UACGUAGGUGGUUUUCCCCUGAUAGUGCUAAGGGGGCCUGGAAGUUUGGUCUGGGCAGAGCCCAACACAGCGUGGCAAAGUGGCUGUGGCUUGACUGCCUCUCUGGAUUCCCCAUCACUCAGCAGGGCAUCUCUGAGAGAAAUGCC [A50U U62C A92U U112C G114A]: the self-cleavage turned out to be 0.09.

In the case of UACGUAGGUGGUUUUCCCCUGAUAGUGCUAAGGGGGCCUGGAAGUUUGGGCUGGGCAGAGCUCAACACAGCGUGGCAAAGUGGCUGUGGCUAGACCGCCUCUCUGGAUUCCUCGUCACUCAGCAGGGCGUCUCUGAGAGAAGUGCC [A50G U96C A129G A142G], the self-cleavage stood at 0. With UACGUAGGUGGUUUUCCCCUGAUAGUGCUAAGGGGGCCUGGAAGUUUGGUCUGGGCAGAGCUCAACACAGCGAGGCAGAGUGGCUGUGGCUAGACUGCCUCUCUGGAUUCCUCGUCACUCAGCAGGGCAUCCCUGAGAGAAAUGCC [A50U U73A A78G U132C], the self-cleavage stood at 0.19. On to UACGUAGGUGGUUUUCCCCUGAUAGUGCUAAGGGGGCCUGGAAGUUUGGGCUGGGCAGAGCUCAACACAGCGUGGCAAAGUGGCCGUGGCUAGACUGCCUCUCUGGAUUCCUCGUCACUCAGCAGGGCAUCUCUGAGAGGAAUGCC [A50G U85C A140G], for which the self-cleavage was 1.08. As for UACGUAGGUGGUUUUCCCCUGAUAGUGCUAAGGGGGCCUGGAAGUUUGGUCUGGGCAGAGCUCAACACAGCGUGGCAAAGUGGCAGUGGCUAGACUGCCUCUCUGGAUUCCUCGUCACUCCGCAGGGCAUCUCUGAGAGAAAUGCC [A50U U85A A121C], the figure is 0.05; as for UACGUAGGUGGUUUUCCCCUGAUAGUGCUAAGGGGGCCUGGAAGUUUGGGCUGGGCAGAGCUCAACACAGCGUGGCAAAGUGGCUGUGGCCAGACUGCCUCUCUGGAUUCCUCGUCACUCUGCAGGGCAUCUCUGAGAGAAAUGCC [A50G U91C A121U], 1.03.

For UACGUAGGUGGUUUUCCCCUGAUAGUGCUAAGGGGGCCUGGAAGUUUGGUCUGGGCGGAGCUCAACACAGCGUGGCAAAGUGGCUGUGGCUAGACUGCCUCUCUGGACUCCUCGUCACUCAGCAGGGCAUCUCUGAGAGAAAUGCC [A50U A57G U108C], the self-cleavage came out at 1.21. For the variant UACGUAGGUGGUUUUCCCCUGAUAGUGCUAAGGGGGCCUGGAAGUUUGGGCUGGGCAGAGCUCAACACAGCGUGGCAAAGUGGCUGUGGCUAGACUGCCUCUCCGGAUUCCUCGUCACUCAGCAGGGCAUCUCUGAGAGAGAUGCC [A50G U104C A141G], the self-cleavage stood at 1.74.

For UACGUAGGUGGUUUUCCCCUGAUAGUGCUAAGGGGGCCUGGAAGUUUGGGCUGGGCAGAGCUCAACACAGCGUGGCAAAGUGGCUGUGGCUAGACAGCCUCUCUGGAUUCCUCAUCACUCAGCAGGGCAUCUCUGAGAGAAAUGCC [A50G U96A G114A], the self-cleavage came to 0.05. As for UACGUAGGUGGUUUUCCCCUGAUAGUGCUAAGGGGGCCUGGAAGUUUGGUCUGGGCAGAGCUCAACACCGCGUGGCAAAGUGGCUGUGGCUAGACUGCCUCUCUGGAUACCUCGUCACUCAGCCGGGCAUCUCUGAGAGAAAUGCC [A50U A69C U109A A124C], the figure is 0.

With UACGUAGGUGGUUUUCCCCUGAUAGUGCUAAGGGGGCCUGGAAGUUUGGUCUGGGCAGAGCUCAGCACAGCGGGGCAAAGAGGCUGUGGCUAGACUGCCUCUCUGGAUUCCUCGUCACUCAACAGGGCAUCUCUGAGAGAAAUGCC [A50U A65G U73G U81A G122A], the self-cleavage was found to be 0.03. On to UACGUAGGUGGUUUUCCCCUGAUAGUGCUAAGGGGGCCUGGAAGUUUGGGCUGGGCAGAGCUCAACACAGCGUGGCAAAGUGGCUGUGGCCAGACCGCCUCUCUGGAUUCCUUGUCACUCAGCAGGGCGUCUCUGAGAGAAAUGCC [A50G U91C U96C C113U A129G], for which the self-cleavage is 0. On to UACGUAGGUGGUUUUCCCCUGAUAGUGCUAAGGGGGCCUGGAAGUUUGGGCUGGGCAGAGCUCAACACAGCGUGGCAAAGUGGCUGUGGCUAGACCGCCUCUCUGGAUUCCUCGUCACUCAGCUGGGCAUCCCUGAGAGAGAUGCC [A50G U96C A124U U132C A141G], for which the self-cleavage came out at 0. As for UACGUAGGUGGUUUUCCCCUGAUAGUGCUAAGGGGGCCUGGAAGUUUGGGCUGGGCAGAGCUCAACACAGCGUGGCAAAGUGGCUGUGGCUAGACUGCCUCUCAGGAUUCCUCGUCACCCAGCAGGGCAUCUCUGAGAGAAAUGCC [A50G U104A U119C], the self-cleavage stood at 0.75. UACGUAGGUGGUUUUCCCCUGAUAGUGCUAAGGGGGCCUGGAAGUUUGGUCUGGGCAGAGCUCAACACAGCGUGGCAAAGUGGCUGUGGCUAGACUGCCUCUCUGGAUUCCUUGUCACUCAGCAGGGCAUCUCUGAGAGAAACGCC [A50U C113U U143C]: the self-cleavage is 0.9.

Regarding UACGUAGGUGGUUUUCCCCUGAUAGUGCUAAGGGGGCCUGGAAGUUUGGGCUGGGCAGAGCUCAACACAGCGAGGCAAAGUGGCUGUGGCUAGACCGCCUCUCUGGAUUCCUCGUCACUCAGCAGGGCAUCUCUGAGAGAAAUGCC [A50G U73A U96C], the self-cleavage stood at 0.5. Next, UACGUAGGUGGUUUUCCCCUGAUAGUGCUAAGGGGGCCUGGAAGUUUGGGCUGGGCAGAGCUCAACACAGCGCGGCAAAGUGGCUGUGGCUAGACUGCCUCUCUGGUUUCCUCGUCACUCAGCAGGGCAUCUUUGAGAGAAAUGCC [A50G U73C A107U C133U]: 2.51; UACGUAGGUGGUUUUCCCCUGAUAGUGCUAAGGGGGCCUGGAAGUUUGGGCUGGGCAGAGCUCAACACAGCGUGGCAAAGUGGCUGAGGCUAGACUGCCUCUCCGGAUUCCUCGUCACUCAGCAGGGCAUCUCUGAGAGAAAUGCC [A50G U87A U104C]: 0.04; UACGUAGGUGGUUUUCCCCUGAUAGUGCUAAGGGGGCCUGGAAGUUUGGGCUGGGCAGAGCCCAACACAGCGUGGCAAAGUGGCUGUGGCUAGACUGCCUCUCCGGAUUCCUCGUCACUCAGCAGGGCAUCUCUGAGGGAAAUGCC [A50G U62C U104C A138G]: 0. In the case of UACGUAGGUGGUUUUCCCCUGAUAGUGCUAAGGGGGCCUGGAAGUUUGGUCUGGGCAGAGCUCAACACAGCGUGGCAGAGUGGCUGUGGCUAGACUGCCUCUCCGGAUUCCUCGUCACUCAGCAGGGCUUCUUUGAGAGAAGUGCC [A50U A78G U104C A129U C133U A142G], the self-cleavage worked out at 1.68. As for UACGUAGGUGGUUUUCCCCUGAUAGUGCUAAGGGGGCCUGGAAGUUUGGGCUGGGCAGAGCUCAACACAGCGUGGCAAAGUGGCUGUGGCUAGACUGCCUCUCUGGACUCCUCGUCACUCAGCAGGGCAUCUUUGAGAGAAAUGCC [A50G U108C C133U], the figure is 2.63; as for UACGUAGGUGGUUUUCCCCUGAUAGUGCUAAGGGGGCCUGGAAGUUUGGUCUGGGCAGAGCUCAACACAGCGUGGCAAAGUGGCUGUGGCUAGACUGCCUCUCUGGAUUCCUCGUCGCUCAGCAGGGCAUCUCUGAGAGAAACGCC [A50U A117G U143C], 1.86; as for UACGUAGGUGGUUUUCCCCUGAUAGUGCUAAGGGGGCCUGGAAGUUUGGUCUGGGCAGAGCUCAACACAGCGCGGCAAAGUGGCUGUGGCUAGACUGCCUCUCUGGAUUCCCCGUCACUCAGCAUGGCAUCUCUGAGAGAGAUGCC [A50U U73C U112C G125U A141G], 1.98.

Take UACGUAGGUGGUUUUCCCCUGAUAGUGCUAAGGGGGCCUGGAAGUUUGGGCUGGGCAGAGCUCAACACAGCGAGGCAAAGUGGCUGUGGCUAGAAUGCCUCUCUGGAUUCCUCGUCACUCAGCAGGGCAUCUCUGAGAGAAAUGCC [A50G U73A C95A]: the self-cleavage amounted to 0.02.

With UACGUAGGUGGUUUUCCCCUGAUAGUGCUAAGGGGGCCUGGAAGUUUGGGCUGGGCAGAGCCCAACACAGCGUGGCAAAGUGGCUGUGGCUAGACUGCCUCUCUGGAUUCCUCGUCACUCAGCAGGGCAUCUCUGAGAGAAAAGCC [A50G U62C U143A], the self-cleavage came to 0. Regarding UACGUAGGUGGUUUUCCCCUGAUAGUGCUAAGGGGGCCUGGAAGUUUGGUCUGGGCAGAGCUCAACACAGCGUGGCAAAGUGGCUGUGGCUAGACUGCCUCUCUGGAUUCCUCGUCACUCAGCAGGACACCUCUGAGAGAAAUGCC [A50U G127A U130C], the self-cleavage was found to be 1.16. Next, UACGUAGGUGGUUUUCCCCUGAUAGUGCUAAGGGGGCCUGGAAGUUUGGUCUGGGCAGAGCUCAACACGGCGUGGCUAAGUGGCUGUGGCUAGACUGCCUCUCUGGAUUCCUCGUCACUCAGCAGGGCAUCUCUGAGAGAAAUGCC [A50U A69G A77U]: 0.06; UACGUAGGUGGUUUUCCCCUGAUAGUGCUAAGGGGGCCUGGAAGUUUGGUCUGGGCAGAGCUCAACGCAGCGUGGCAAAGUGGCUGUGGCUAGACUGCCACUCUGGAUUCCUCGUCACUCAGCAGGGCAUCUCAGAGAGAAAUGCC [A50U A67G U100A U134A]: 0. As for UACGUAGGUGGUUUUCCCCUGAUAGUGCUAAGGGGGCCUGGAAGUUUGGGCUGGGCAGAGCUCAACACAGCGUGGCAAAGUGGCUGUGGCCAGACUGCCUCUCUGGAUUCCUCGUCACUCAGCAGGGCAUCUCCGAGAGAAAUGCC [A50G U91C U134C], the figure is 0.18; as for UACGUAGGUGGUUUUCCCCUGAUAGUGCUAAGGGGGCCUGGAAGUUUGGGCUGGGCAGAGCUCAACACAGCGUGGCAAAGUGGCUGUGGCUAGACAGCCUCUCUGGAUUCCUCGACACUCAGCAGGGCAUCUCUGAGAGAAAUGCC [A50G U96A U115A], 0.02. Consider UACGUAGGUGGUUUUCCCCUGAUAGUGCUAAGGGGGCCUGGAAGUUUGGUCUGGGCAGAGCUCAACGCAGCGUGGCAAAGUGGCUGUGGCUAGACUGCCUCUCUGGAUUCCUCGUCACUCAGCAGGGCAUCCCUGAGAGAAAUGCC [A50U A67G U132C], for which the self-cleavage came out at 0.19.
